This note sets out measurements from the RNAGym collection of RNA variant scans (doi:10.1093/nar/gkz1192).

B1: CPEB3 Ribozyme (parent)
chain: UAACAGGGGGCCACAGCAGAAGCGUUCACGUCGCAGCCCCUGUCAGAUUCUGGUGAAUCUGCGAAUUCUGCUGUAUAUCUC

Read counts are not given, so values of variants with three or more changes are uncertain.

In the series the parent is B1. The series can be described thus: self-cleavage, relative activity (ratio to wild type); higher = more cleavage; in vitro, sequencing. The method, boiled down:
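CPEB3 self-cleaving ribozyme mutant libraries were made by rounds of error-prone PCR, barcoded, and transcribed in vitro with T7 RNA polymerase for 5 hours at 37°C. Cleavage occurred during transcription and a 15 min DNase I step before EDTA stop. RNAs were reverse transcribed with template switching and Illumina-sequenced, with DNA sequencing mapping barcodes to variants. Relative activity is the variant's cleaved/total read fraction divided by wild type's (minimum 5 reads), averaged across three batches.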
Consider UAGCAGGGGGCCACAGUAGAAGCGUUCACGUCGCAGCCCCUGUCAGAUUCUGGCGAAUCUGCGAGUUCUGCUGUAUAUCUC [A3G C17U U54C A65G], for which the self-cleavage was 0.35.

Turning to UAGCAGGGGGCCACAGCAGAAGCGUUCGCGUCGCAGCACCUGUCAGGUUCUGGUGAAUCUGCGAAUUAUGCUGUAUAUCUC [A3G A28G C38A A47G C68A], the self-cleavage came to 0.22.

Turning to UAGCAGGGGGCCACAGCAGAAGCGUUCGCGUCGCAGCCCCUAUCAGACUCUGGUGAAUCUGCGAAUCCUGGUGAAUAUCUC [A3G A28G G42A U48C U67C C71G U74A], the self-cleavage was 0.06.

For UAGCAGGGGGCCACAGCAGAAGCGUUCACGUCGCGGCCCCUGUCAGGUUCUGGUGAAUCUGCGAAUUCUGCCGUAUAUCUC [A3G A35G A47G U72C], the self-cleavage is 1.23.

As for UAGCAGGGGGUCACAGCAGAAGCGUUCACGUCGCAGCCCCUGUCAGAUUCUGGUGAGUCUGCGAAUUCUGCUGUAUAUCUC [A3G C11U A57G], the self-cleavage stood at 0.23.

In the case of UAGCAGGGGGCACCAGCAGAAGCGUUCAUGUCGCGGCCCCUGUCAGAUUCUGGUGAAUCUGCGAAUUCUGCUGUAUAUCUC [A3G C12A A13C C29U A35G], the self-cleavage was determined as 0.46.

On to UAGCAGGGGGCCACAGCAGAAGCGUUCACGUCGCUGCCCCUGUCGGAUUCUGGUGAAUCAGCGAAUUCUGCUGUAUAUCUC [A3G A35U A45G U60A], for which the self-cleavage is 0.26.

Consider UAGCAGGGGGCAACAGCAGAAGCGUUCACGUCGCAGCCCCUGUCAGAUCCUGGUGAAUCUGCGAAUCCUGCUGUAUAUCUC [A3G C12A U49C U67C], for which the self-cleavage amounted to 0.21.

In the case of UAGCAGGGGGCCACAGCAGAAGCGUUCUCGUCUCAGCCCCUGUCAGAUUCUGGUGAAUCUGCGAAUUCUGCUGUAUAUCUC [A3G A28U G33U], the self-cleavage is 0.31.

UAGUAGGGGGCCACAGCAUGAGCGUCCACGUCGCAGCCCUUGUCAGAUUCUGGUGAAUCUGCGAAUUCUGCUGUAUAUCUC [A3G C4U G19U A20G U26C C40U]: the self-cleavage turned out to be 0.12.

Regarding UAGCAGGGGGCCACAGCAGAAGCGUUCACGUCGCUGCCCCUGUCAGAUUCUGGAGAAUCUGCGAAUUCUCCUGUAUGUCUC [A3G A35U U54A G70C A77G], the self-cleavage amounted to 0.24.

Take UAGCAGGGGGCCAUAGCAAAAGCGUUCACGUCGCAGCCCCUGCCUGAUUCUGGUGAACCUGCGAAUUCUGCCGUAUAUCUC [A3G C14U G19A U43C A45U U58C U72C]: the self-cleavage was 0.06.

As to UAGCAGGGGGCCACAGCAGAAGCGUUCGCGUCGCUGCCCCUGUCAGAUUCUGGUGAAUCUGCGAAUUCUGCUGUAUAUCUC [A3G A28G A35U], the self-cleavage worked out at 0.22.

Take UAGCAGGGGGCCACAGCAGAAGGGUUCACGUCGCGGCCCUUGUCAGAUUCUGGCGAAUCUGCGAAUUCUGCGGUAUAUCUC [A3G C23G A35G C40U U54C U72G]: the self-cleavage stood at 0.28.

For UAGCAGGGGGACACAGCAGAAGCGUUCACGCCGCAGCCCCUGUCUGAUUCUGGCGAAUCUGCGAAUUCUGCUGUAUAUCUC [A3G C11A U31C A45U U54C], the self-cleavage is 0.07.

Regarding UAGUGGGGGGCCACAGCAGAAGCGUUCACGUCGCCGCCCCUGUCAGAUUCUGGUGAAUCUGCGGAUCCCGCUGUAUAUCUC [A3G C4U A5G A35C A64G U67C U69C], the self-cleavage came out at 0.25.

Consider UAGCAGGGGGCCACAGCAGAAGAGUUCACGUCGCAGCCCCUGUCAGAUUCUGGUGAAUCUGCGAAUUCUGCCGUAUAUCUC [A3G C23A U72C], for which the self-cleavage was 0.62.

Consider UAGCAGGGGGGCUCAGCAGAAGCGUUCACGUCGCAGCCCCUGUCAGAUUCUUGUGAAUCUACGAAUUCCGCUGUAUAUCAC [A3G C11G A13U G52U G61A U69C U80A], for which the self-cleavage came out at 0.13.

Take UAGCAGGGGGCCACAGCAGAAGCGUUCACGUCGCAGCCCCUGUCGGAUUCCGGUGAAUCUGCGAAUUCUGCUGCAUAUCCC [A3G A45G U51C U74C U80C]: the self-cleavage turned out to be 1.

UAGCAGGGGGCCACAGCAGAAGUGUUCACGUCGCAGCCCCUGACAGAUUCUGGUGGAUCUGCGAAUUCUGCUGUAUAUCUC [A3G C23U U43A A56G]: the self-cleavage worked out at 0.18.

For UAGCAGGGGGCCACAGCAGAAGCGUUCGCGUCGCAGCCCCCGUCUGAUUCUGGUGAAUCUGCGAAUUCUGCUGUAUAUCUC [A3G A28G U41C A45U], the self-cleavage turned out to be 0.69.

For UAGCAGGGGGCCACAGCAGAAGCGUUCACGUCGCCGCCCCUGUCAGAUUGCGGUGAAUCUGCGAAUACUGCCGUAUAUCUC [A3G A35C C50G U51C U67A U72C], the self-cleavage came to 0.27.

UAGCAGGGGGCCACAGCAGAAGCGUUCACGUCGCUGCCCCUGUCAGAUUCUGGAGGAUCUGCGGAUUCUGCUGUAUAUCUC [A3G A35U U54A A56G A64G]: the self-cleavage turned out to be 0.44.

In the case of UAGCAGGGGGCCACAGCAGAAGCGUUCAAGUCGCAGCCCCUGUCAGAUUCUGGUGAAUCUGCGAACUCUGCUGUAUAUCUC [A3G C29A U66C], the self-cleavage was determined as 0.24.

As to UAGCAGGGGGCCACAGCAGAAGCGUUCACGUCGCAGCCCCUGUCGGAUUCUGGCGAAUCUGCGAAUUCUGCUGUAUAUCUC [A3G A45G U54C], the self-cleavage came to 1.09.

As for UAGCAGGGGGUCACGGCAGAAGCGUUCACGUCGCAGCCCCAGUCAGAUUCUGGUGAAUCUGCGAAUUCUGCCGUAUAUCUC [A3G C11U A15G U41A U72C], the self-cleavage amounted to 0.42.

On to UAGCAGGGGGCCACAGCAGAAGCGUUCAGGUCGCAGCCCCUGUCAGAUUCCGGUGAGUCUGCGAAUUCAUCUGUAUAUCUC [A3G C29G U51C A57G U69A G70U], for which the self-cleavage was 0.09.

As to UAGCAGGGGGCCACAGCAGAAGCGUUCGCGUCGCAGCCCCUGUCAGAUUCUGGUGAAUCUGCGUAUUCUGCUGUAUAUCUC [A3G A28G A64U], the self-cleavage was determined as 0.36.

In the case of UAGCAGGGGGCCACAGCAGAAGCGUUCACGUCGCGGCCCCUGUAAGAUUCUGGUGAAUCUGCGACUUCAGCCGUACAUCUC [A3G A35G C44A A65C U69A U72C U76C], the self-cleavage came to 0.36.

Regarding UAGCAGGGGGCCACAGCAGAAGCGUUCACGUCGCUGCCCCUGUCAGAUUCUGGUGAAUCUGCGUAUUCUGCUGUAAACCUC [A3G A35U A64U U76A U78C], the self-cleavage was 0.16.

For the variant UAGCAGGGGGCCACAGCAGAAGCGUUCACGUCGCAGCCCCUGUCAGAUUCUGGUGAAUCUGCGUAUUCUGCUGUAGAUCUC [A3G A64U U76G], the self-cleavage worked out at 0.12.

For UAGUAGGGGACCACAGCAGAAGCGUUCACGUCGCAGCCCCUGUCAGAUUCUGGUGAAUCUGCGAAAUCUGCUGUAUAUCUC [A3G C4U G10A U66A], the self-cleavage was determined as 0.31.

As to UAGCAGGGGGCCACAGCAGAAGCGUUAACGUCGGAGCCCCUGUCAGAUUCAGGUGAAUCUGCGAAUUCUGCUGCAUAUCUC [A3G C27A C34G U51A U74C], the self-cleavage came to 0.45.

Take UAGCAGGGGGCCAGAGCAGAAGCGUUCACGUCGCAGCCCCUGUCAGAUUCUGGUGAAUCUGCGAAUUCUGCUGUCUACCUC [A3G C14G A75C U78C]: the self-cleavage worked out at 1.04.
